In US20120142731A1, “METHODS OF INHIBITING VIRAL INFECTION” (Functional Genetics, Inc., priority 2007, published 2012):

Assays:
influenza virus = format: cell-based
HIV = format: cell-based

CC(C)(C)NCc1cc(Nc2ccnc3cc(Cl)ccc23)cc(-c2ccc(Cl)cc2)c1O [Compound R24, 4′-chloro-5-[(7-chloro-4-quinolinyl)amino]-3-(1,1-dimethylethylamino)methyl [1,1′-biphenyl]-2-ol]
inhibiting influenza viral activity (influenza virus): remarkably effective | inhibition of HIV (luciferase detected) (HIV): complete inhibition
